Reference: PMC9865020, “Identification of Novel Small Molecule Ligands for JAK2 Pseudokinase Domain” (Pharmaceuticals, 2023)

Columns and labels:
[1] = system: Ba/F3-hJAK2 wildtype cells; assay: alamarBlue cell viability assay; assay type: cell-based, murine; settings: Mus musculus, 48 h, n=3, read-out: Cell viability IC50 Ba/F3-hJAK2 wt
Ba/F3 hJAK2 V617F cells = assay: alamarBlue cell viability assay; assay type: cell-based, murine; settings: Mus musculus, BaF3, 48 h, n=3
JAK2 JH2 wild-type = molecular target: T1, JAK2 JH2 wild-type (Homo sapiens, UniProt O60674); assay: Fluorescence polarization binding assay, Bodipy FL-ATP tracer; settings: 100 µM analog concentration, FP
T1 construct: Human JAK2 JH2 (503-827); hexa histidine-tag (C); made in house; host or cells: High Five or Sf9 insect cells

JAK2 JH1 D976N = JAK2 JH1 D976N (Homo sapiens, UniProt O60674, D976N); assay: as above; settings: read-out: inhibition-% of tracer binding to JAK2 JH1

IC50 [1]: > 40 µM
IC50 (Ba/F3 hJAK2 V617F cells): > 40 µM
inhibition at 100 µM (JAK2 JH2 wild-type): 85%
inhibition at 100 µM (JAK2 JH1 D976N): 13%
Compound: Cc1ccsc1CN(C)Cc1nc(N)nc(Nc2ccccc2)n1 [Compound 24]
